Assays:
[1] = target: T1, CD80-mIg (Ancell Catalog #510-020) (UniProt P33681 35-242); experiment: ELISA, CD80
T1 construct: Bought reagent; also called CD80-mIgG; sCD80
T1 sequence (looked up): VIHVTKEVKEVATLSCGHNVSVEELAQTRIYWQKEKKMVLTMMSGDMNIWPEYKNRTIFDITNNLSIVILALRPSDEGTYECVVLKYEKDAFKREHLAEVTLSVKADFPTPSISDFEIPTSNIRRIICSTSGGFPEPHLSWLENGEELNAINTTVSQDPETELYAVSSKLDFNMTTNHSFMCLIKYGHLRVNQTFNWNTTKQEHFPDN

[2] = target: T2, CD86 on cells (WIL2-S human B-lymphoblastoid cells; HuCD86-2A2 CHO cells expressing CD86) (human, UniProt P42081 24-329); experiment: flow cytometry on CD86-expressing CHO cells
T2 construct: whole, on cells; also called cell surface CD86
T2 sequence (looked up): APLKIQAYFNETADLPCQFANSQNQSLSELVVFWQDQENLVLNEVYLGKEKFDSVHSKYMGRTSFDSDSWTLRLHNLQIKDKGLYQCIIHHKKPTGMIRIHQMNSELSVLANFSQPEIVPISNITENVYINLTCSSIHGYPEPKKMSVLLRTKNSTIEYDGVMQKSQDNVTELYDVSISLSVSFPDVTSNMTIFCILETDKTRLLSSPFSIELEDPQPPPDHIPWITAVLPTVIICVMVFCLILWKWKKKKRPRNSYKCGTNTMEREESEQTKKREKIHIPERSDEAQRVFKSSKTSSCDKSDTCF
Experimental: Briefly, WIL2-S or HuCD86-2A2 cells were incubated with test molecules containing a CD86 antagonist at concentrations ranging from saturation to background levels. […] After the incubation, cells were washed and a fluorophore (R-phycoerythrin) tagged F(Ab′)₂ antibody specific for the Fc portion of the xceptor molecule, IL10R-Ig fusion protein, or anti-IL10 antibody. The tagged cells were then passed through a flow cytometer and data was analyzed by plotting median fluorescence intensity of each sample.

[3] = target: T3, soluble IL-10 receptor 1 (IL-10R1, R&D Systems) (human, UniProt Q13651 22-235); experiment: ELISA, sIL10Ra (FIG. 12); also simultaneous with CD80 (FIG. 13)
T3 construct: Bought soluble receptor; also called sIL10Ra; sIL10R1
T3 sequence (looked up): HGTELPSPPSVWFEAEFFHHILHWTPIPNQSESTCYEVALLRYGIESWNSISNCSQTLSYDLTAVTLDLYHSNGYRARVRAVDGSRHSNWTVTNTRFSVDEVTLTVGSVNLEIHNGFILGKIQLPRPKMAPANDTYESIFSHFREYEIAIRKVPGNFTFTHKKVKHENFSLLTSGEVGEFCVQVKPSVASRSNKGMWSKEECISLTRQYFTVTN

Measured: binding result

B1: (CTLA4::IL10)-69 xceptor (Fc fusion)
chain: [about 120 residues not spelt out]EPKSSDKTHTCPPCPAPEAAGAPSVFLFPPKPKDTLMISRTPEVTCVVVDVSHEDPEVKFNWYVDGVEVHNAKTKPREEQYNSTYRVVSVLTVLHQDWLNGKAYACAVSNKALPAPIEKTISKAKGQPREPQVYTLPPSRDELTKNQVSLTCLVKGFYPSDIAVEWESNGQPENNYKTTPPVLDSDGSFFLYSKLTVDKSRWQQGNVFSCSVMHEALHNHYTQKSLSLSPGEQKLSNMENRLKPFFTSGSADTSPNSSPGQGTQSENSCTHFPGNLPNMLRDLRDAFSRVKTFFQMKDQLDNLLLKESLLEDFKGYLGCQALSEMIQFYLEEVMPQAENQDPDIKAHVNSLGENLKTLRLRLRRCHRFLPCENKSKAVEQVKNAFNKLQEKGIYKAMSEFDIFINYIEAYMTMKIRN
binds: all assays above

— patent publication US20120100139A1 (APTEVO RESEARCH AND DEVELOPMENT, published 2012)
